Data taken from PubChem BioAssay AID1347073 (National Center for Advancing Translational Sciences (NCATS), 2019).
About 200 (0.44%) of roughly 45,000 compounds were called active. Not shown: some 7% with an inconclusive outcome. Calls come from the whole dose curve; as a rule, active = well fitted activation curve with a large enough effect; inconclusive = small, poorly fitted or top-dose-only effect; inactive = no such curve, though single readings can be large or run the other way. The list shows a part of the results.

Assay: qHTS of TDP-43 Inhibitors: NCGC Sytravon Library Screen; note: 0% is about no effect; nearly all actives have a fitted effect of over 55% in size
Conditions: yeast TDP-43 toxicity rescue, BacTiter-Glo growth, 24 h; series mostly up to 46.1 µM; growth rescue (activation): at the top concentration
In short: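 TDP-43-expressing yeast, pregrown in raffinose, seeded at OD600 0.02 in galactose medium with compound for 24 hr at 30 deg C. Growth read by BacTiter-Glo luminescence, so rescue of toxicity appears as activation.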

Row | Structure (SMILES) | growth rescue (activation)
1 | COc1ccc(/C=C/CN2CCN(Cc3ccc(C)cc3)C(CCO)C2)cc1 (stereo unspecified) | inactive: 5.25%
2 | CCC(=O)/C(=C(/O)c1ccccc1)c1nc2ccccc2[nH]1 | inactive: 4.18%
3 | CN(Cc1nc(-c2ccccc2)no1)C(=O)c1ccco1 | inactive: 15%
4 | COC(=O)c1ccc(NC(=O)c2ccc[n+]([O-])c2)cc1 | inactive: 15%
5 | O=[N+]([O-])c1ccc(Cl)c(S(=O)(=O)/N=C(/c2ccccc2)N2CCOCC2)c1 | inactive: -1.44%
6 | O=C(NCc1ccco1)C1CC(O)CN1C(=O)Nc1ccccc1 (stereo unspecified) | inactive: -6.48%
7 | COc1ccc(Cc2nnc(Nc3ccc4c(c3)OCCO4)[nH]c2=O)cc1 | inactive: 14.5%
8 | CC1(C)CC(=O)C2=C(C1)NC(=O)NC2c1ccc(Cl)cc1 (stereo unspecified) | inactive: -8.12%
9 | Cc1ccc(C)c(Cn2nc(-c3cc(C)ccc3C)ccc2=O)c1 | inactive: -24.2%
10 | Cc1ccc(NC(=O)CCn2nnc3ccccc32)cc1 | inactive: -8.62%
11 | CCN(CC)C(=O)CN(C#N)c1nc(C)cc(C)n1 | inactive: 0.54%
12 | CCN(C(=O)COC(=O)[C@H](C)N=C1NS(=O)(=O)c2ccccc21)C1CCS(=O)(=O)C1 (stereo partly specified) | inactive: -6.4%
13 | O=C(Nc1ccc(Oc2ccccc2)nc1)C1CCN(Cc2ccco2)CC1 | inactive: -4.68%
14 | Cc1cccc2cc3c(NC(=O)C(C)(C)C)nn(CC(C)C)c3nc12 | inactive: 4.14%
15 | CC(=O)c1c(C)[nH]c(C(=O)Nc2ccccc2Cl)c1C | inactive: -10.8%
16 | Cc1ccc2cc(CN(c3ccc(C)c(C)c3)S(C)(=O)=O)c(=O)[nH]c2c1 | inactive: -15%
17 | CCC(C)[C@H](N)C(=O)NC[C@H]1CC[C@H](C(=O)N[C@@H](Cc2ccccc2)C(=O)O)CC1 (stereo partly specified) | inactive: -14.7%
18 | O=C(CC1NCCNC1=O)Nc1ccc(Cl)c(Cl)c1 (stereo unspecified) | inactive: 4.6%
19 | CCOC(=O)C1(Cc2ccccc2C(F)(F)F)CCN(C2CCCC2)CC1 | inactive: 6.45%
20 | COc1ccc(-c2cc(C(=O)N3CCN(c4ccccc4OC)CC3)no2)cc1OC | inactive: 3.18%
21 | O=c1c(Cl)c(Cl)cnn1Cc1nnc(-c2ccc(Cl)cc2)o1 | inactive: 3.74%
22 | CCCNC(=O)C1(C)CCN(C(=O)c2sccc2C)C1 (stereo unspecified) | inactive: 5.77%

Row | Structure (SMILES) | growth rescue (activation)
23 | CCNC(=S)SCCOc1ccc(C)cc1 | inactive: 14.3%
24 | CC1CCCN(C(=O)COC(=O)Cc2c(F)cccc2Cl)C1 (stereo unspecified) | inactive: 10.9%
25 | CCOC(=O)C1CCN(c2ncnc3c2c(-c2ccccc2)cn3-c2ccccc2)CC1 | inactive: 28.4%
26 | CCC(=O)c1ccc(OCC(=O)OCC(=O)Nc2sccc2C(N)=O)cc1 | inactive: 15.9%
27 | CC1(C(=O)NS(=O)(=O)C2CC2)CCCN(C(=O)c2cccc(Cl)c2)C1 (stereo unspecified) | inactive: -0.196%
28 | CC(C)c1ccccc1NC(=O)Nc1nnc([C@@H]2C[C@H](O)[C@@H](CO)O2)s1 | inactive: 3.39%
29 | COc1cc2nc(CSc3ncn[nH]3)[nH]c(=O)c2cc1OC | inactive: 2.57%
30 | CCc1nc(N2CCCCC2C(=O)O)c2oc3ccccc3c2n1 (stereo unspecified) | inactive: 6.5%
31 | CC1(C)OC(=O)C(=NNc2ccc(C(=O)O)cc2)C(=O)O1 | inactive: 9.61%
32 | CCOC(=O)C1=C(C)NC2=C(C(=O)c3ccccc32)C1c1cccnc1 (stereo unspecified) | inactive: 15.1%
33 | CC1(C)CC(=O)c2sc(N3CCCCC3)nc2C1 | inactive: 6.96%
34 | Cc1ccc(NS(=O)(=O)c2cc(C(=O)N3CCN(C)CC3)ccc2C)cc1C | inactive: -11%
35 | COc1ccc(OC)c(-c2csc(N(CC3CCCO3)C(=O)C3CCCCC3)n2)c1 (stereo unspecified) | inactive: -5.91%
36 | Cc1ccsc1/C=N/NC(=O)CN1CCN(S(=O)(=O)c2ccc(Br)cc2)CC1 | inactive: -2.68%
37 | C=CCNC(=S)NNC(=O)c1ccc(=O)n(Cc2ccc(Cl)cc2Cl)c1 | inactive: 7.52%
38 | COc1ccccc1/C=C\C(=O)NCC(=O)N/N=C(\C)Cc1ccccc1 | inactive: -4.68%
39 | COc1ccc(-c2nc(SCc3cc(=O)c4cc(C)ccc4[nH]3)n[nH]2)cc1 | inactive: 15.4%
40 | CCOCCCNC(=O)C(c1ccc(OC)cc1)N(Cc1ccc2c(c1)OCO2)C(=O)c1ccccc1O (stereo unspecified) | inactive: -3.08%
41 | CC1CCCCN1C(=O)c1cc(Cl)ccc1[N+](=O)[O-] (stereo unspecified) | inactive: 19.3%
42 | COc1cc(/C=C/C(=O)OCC(=O)Nc2ccc(S(=O)(=O)N3CCCC3)cc2)ccc1O | inactive: 4.13%
43 | COc1cc(C(=O)NCCNC(=O)c2ccco2)cc(OC)c1OC | inactive: -37.7%
44 | N/C(=N\OC(=O)c1ccc([N+](=O)[O-])cc1)c1ccccn1 | inactive: 4.82%

Row | Structure (SMILES) | growth rescue (activation)
45 | COc1cccc(CC(=O)Nc2nc(-c3ccc(OC)c(OC)c3)cs2)c1 | inactive: 14.4%
46 | Cc1ccc(S(=O)(=O)N(C)C)cc1NC(=O)COC(=O)c1ccc(Cl)cc1 | inactive: 12.3%
47 | COc1ccc(C(CCNCc2ccc(F)cc2)c2ccc(F)cc2)cc1 (stereo unspecified) | inactive: -18.9%
48 | O=C(NCc1ccccc1)c1nc(S(=O)(=O)Cc2ccccc2)ncc1Cl | inactive: 2.3%
49 | CCNC(=O)COc1ccc(/C=C2\COc3ccccc3C2=O)cc1OC | inactive: 13.8%
50 | O=C(Nc1cccc2ncccc12)C(c1ccccc1)c1ccccc1 | inactive: -0.436%
51 | CCCS(=O)(=O)NC(=O)C1(C)CCCN(C(=O)c2cc(C)nn2C(C)(C)C)C1 (stereo unspecified) | inactive: 8.89%
52 | Cc1cc(C(=O)OCC(=O)c2ccccc2)c2ccccc2n1 | inactive: 20.8%
53 | O=C(CCC(=O)N(CC(=O)NC1CCCC1)c1cccc(F)c1)Nc1nccs1 | inactive: 1.41%
54 | Cc1ccc2ccccc2c1C(O)c1ncc(-c2cccc(C(F)(F)F)c2)[nH]1 (stereo unspecified) | inactive: 22.7%
55 | Cc1ccc(C(C(=O)NCC2CCCO2)N(C(=O)c2snc(C(N)=O)c2N)c2ccc(C(C)C)cc2)o1 (stereo unspecified) | inactive: -21%
56 | CCCCNC(=O)N(O)C1N(/N=C/c2cccnc2)C(=S)SC1(C)C (stereo unspecified) | inactive: -8.39%
57 | COc1ccc([N+](=O)[O-])cc1NC(=S)NC(C)=O | inactive: -0.418%
58 | O=C(Nc1ccnn1C1CCN(C2CCC2)CC1)c1ccccc1Cl | inactive: -1.13%
59 | COc1ccccc1N=Nc1c(O)[nH]c2ccc(Br)cc12 | inactive: 2.05%
60 | C/C(=N\Nc1nncc2ccccc12)c1ccc(Cl)c([N+](=O)[O-])c1 | inactive: -3.01%
61 | CCOc1ccc(S(=O)(=O)NCc2cccnc2)cc1NC(=O)c1ccccc1 | inactive: -3.13%
62 | COc1ccc(C2(C)NC(=O)N(CC(=O)NCc3ccccc3)C2=O)cc1OC (stereo unspecified) | inactive: 11.1%
63 | Cn1cccc1/C=N/NC(=O)c1ccncc1 | inactive: 8.08%
64 | O=C(COc1ccc(-c2nnco2)cc1)Nc1ccc(F)c(Cl)c1 | inactive: 5.27%
65 | CCOC(=O)c1c(NC(=S)NC(=O)/C=C/c2cccs2)sc(C)c1C | inactive: -6.48%
66 | CC(=O)Nc1ccc(NC(=O)COC(=O)[C@@H](NC(=O)c2ccc(F)cc2)C(C)C)cc1 | inactive: 0.52%

Row | Structure (SMILES) | growth rescue (activation)
67 | O=C(Cn1cc(COc2ccc(Cl)c(Cl)c2)nn1)NS(=O)(=O)c1ccccc1OC(F)(F)F | inactive: -0.949%
68 | CC1(C(=O)Nc2cccc3cccnc23)CCN1C(=O)CC1CC1 (stereo unspecified) | inactive: 6.8%
69 | NC(=O)NOCc1ncc(C(F)(F)F)cc1Cl | inactive: 11.1%
70 | COc1cc2c(cc1OC)C(CCc1ccccc1)=NCC2 | inactive: -0.454%
71 | Cc1noc(C)c1C(=O)NC(Cc1c[nH]c2ccccc12)C(=O)O (stereo unspecified) | inactive: 5.85%
72 | O=C(COC(=O)Cc1c[nH]c2ccccc12)Nc1ccccc1 | inactive: 14%
73 | Cc1ccc(NC(=O)CSc2nc3sc(C)cc3c(=O)n2C)cc1 | inactive: -2.75%
74 | CC1(C)C(=O)Nc2ccccc2N1C(=O)COC(=O)c1cccs1 | inactive: 8.96%
75 | O=C(c1ccccc1)N1CCN(C(=O)C2CC2)CC1 | inactive: -9.34%
76 | C=CCCCCCCCCC(=O)NNC1=CC(=O)CC(C)(C)C1 | inactive: 18.1%
77 | COc1ccc(-c2csc(/C(C#N)=C\c3ccc(O)c([N+](=O)[O-])c3)n2)cc1OC | inactive: -7.44%
78 | CC(C)NC(=O)C1CCN(C2CCN(C(=O)/C=C/c3cccs3)CC2)CC1 | inactive: 3.08%
79 | COc1cc(C(C)=O)ccc1OC(=O)CN1C(=O)c2ccccc2C1=O | inactive: -0.507%
80 | Cc1ccc2nc(-c3ccccn3)c(NC3CCCC3)n2c1 | inactive: -23.5%
81 | COCCNC(=O)c1cc2c(-c3ccccc3F)nn(C)c2s1 | inactive: 27.1%
82 | CCOc1ccc(NC(=O)CSc2nc3nc4c(cc3c(=O)n2CC)COC(C)(C)C4)cc1 | inactive: 8.62%
83 | Cc1nn(-c2ccccc2)c(C)c1/C=N/NC(=O)CSc1nnc(-c2ccccc2)n1-c1ccc(Cl)cc1 | inactive: -5.96%
84 | Nc1c2c(nc3ccccc13)CCC2 | inactive: -3.25%
85 | O=C(Cc1ccc([N+](=O)[O-])cc1)N1N=C(c2ccncc2)CC1(O)C(F)(F)F (stereo unspecified) | inactive: 2%
86 | CC(C)C(OC(=O)c1ccc(Cl)nc1)C(=O)NC1CCCCC1 (stereo unspecified) | inactive: 16.5%
87 | Cc1cc(C)c(NC(=O)CC(=O)c2ccccc2)c(Cl)c1 | inactive: 0.593%
88 | CCC(CC)c1nnc(NC(=O)COc2ccc3c(c2)OCO3)s1 | inactive: 3.12%

Row | Structure (SMILES) | growth rescue (activation)
89 | O=C(N/N=C/C=C/c1ccccc1[N+](=O)[O-])c1ccncc1 | inactive: 6.78%
90 | O=C(NCC1CCCO1)C1CCCN1C(=O)NC1CCCCC1 (stereo unspecified) | inactive: 19.8%
91 | Cc1cc(C)c2nc(C)cc(Nc3ccc(C(=O)N4CCOCC4)cc3)c2c1 | inactive: 9.61%
92 | CCCCN1CC(C(=O)NC2CCCCC2)CC1=O (stereo unspecified) | inactive: 16.6%
93 | COc1cc(CNc2ccc(CNc3ncn[nH]3)cc2)ccc1OCc1ccccc1 | inactive: 4.25%
94 | COc1cc(N=C2C(=O)N3c4c(cccc42)C(C)=CC3(C)C)cc(OC)c1 | inactive: 2.64%
95 | Cc1ccc(N(Cc2cc3ccccc3[nH]c2=O)S(=O)(=O)c2ccccc2)cc1 | inactive: 12.9%
96 | CC(=O)c1cccc(NC(=O)COC(=O)COc2ccc(Cl)cc2)c1 | inactive: -28.4%
97 | Cc1ccc2c(COC(=O)C34CC5CC(CC(C5)C3)C4)cc(=O)oc2c1 | inactive: 12.6%
98 | CC(C)(C)n1ncc2c(=O)n(CC(=O)Nc3ccccc3)cnc21 | inactive: 8.65%
99 | COc1ccccc1C(=O)C1CCCN(C(=O)CCc2ccccn2)C1 (stereo unspecified) | inactive: 4.82%
100 | O=c1[nH]c2ccccc2nc1/C=C/c1ccccc1 | inactive: -4.75%
101 | CN(c1ccccc1)c1ccc(/C=C(/CCC(=O)O)c2nc3ccccc3s2)cc1[N+](=O)[O-] | inactive: 7.75%
102 | CCOc1cc(C(c2c(C)[nH][nH]c2=O)c2c(C)[nH][nH]c2=O)ccc1O | inactive: -9.59%
103 | CCN(c1ccccc1)S(=O)(=O)c1ccc(Cl)c(NC(=O)Nc2ccc(Cl)cc2C#N)c1 | inactive: 6.59%
104 | Cc1ccc(CNC(=O)C2CSC3(C)CCC(=O)N23)cc1 (stereo unspecified) | inactive: 4.01%
105 | Cc1cc(C)nc(N2CCC(C(=O)Nc3ccc4c(c3)OCCO4)CC2)n1 | inactive: 1.79%
106 | Cc1ccc(SCc2ccc(C(=O)Nc3cccnc3)cc2)cc1 | inactive: 26.1%
